Laboratory results as given in the supplement of paper PMC12217912.
This is one part of the list. The full chains were built here from the parent and the listed change. Values near 0.05 are background.

B1: TEV protease; numbered along this chain (parent)
chain: MGESLFKGPRDYNPISSSICHLTNESDGHTTSLYGIGFGPFIITNKHLFRRNNGTLVVQSLHGVFKVKDTTTLQQHLVDGRDMIIIRMPKDFPPFPQKLKFREPQREERICLVTTNFQTKSMSSMVSDTSCTFPSGDGIFWKHWIQTKDGQCGSPLVSTRDGFIVGIHSASNFTNTNNYFTSVPKNFMELLTNQEAQQWVSGWRLNADSVLWGGHKVFMVKPEEPFQPVKEATQL

Variants of: B1
Assay: raw area under fraction-flipped curve 0-4 h after induction (AUC4h, not background-subtracted), DNA-recorder readout of cleavage of the substrate (dimensionless); higher = more cleavage of the substrate by the protease variant
Conditions: temperature: 34 °C; time window: 0-4 h after rhamnose induction
Protocol: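 In vivo DNA recorder in E. coli TOP10(DE3) ΔrhaA at 34 °C. Each TEVp single-site mutant (parent TEVp 0) is paired with a single-site variant of the 7-mer TEVs (canonical ENLYFQ|S). The substrate sits between flexible linkers in a Bxb1-sfGFP-TEVs-SsrA fusion, so cleavage stabilises Bxb1 and speeds flipping of a recombination array, read by NGS. The value is the raw area under the fraction-flipped curve over 0-4 h after rhamnose induction (AUC4h), with ≥20 reads per time point. It is not background-subtracted; inactive controls average about 0.047.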
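Further: Bxb1 expression induced with 0.2% (w/v) L-rhamnose at OD600 near 0.5, cultures sampled hourly, flipped fraction per protease–substrate barcode pair counted by paired-end Illumina sequencing.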

| Variant | area with substrate ENLYAQS | area with substrate ENLYDQS | area with substrate ENLYEQS | area with substrate ENLYIQS | area with substrate ENLYKQS | area with substrate ENLYLQS | area with substrate ENLYMQS | area with substrate ENLYNQS | area with substrate ENLYPQS | area with substrate ENLYQQS | area with substrate ENLYRQS | area with substrate ENLYSQS | area with substrate ENLYTQS | area with substrate ENLYWQS | area with substrate ENLYYQS | area with substrate ENLYGQS | area with substrate ENLYHQS | area with substrate ENLYVQS | area with substrate ENLYCQS |
| --- | --- | --- | --- | --- | --- | --- | --- | --- | --- | --- | --- | --- | --- | --- | --- | --- | --- | --- | --- |
| V165W | 0.041 | 0.0416 | 0.0663 | 0.0385 | 0.0552 | 0.102 | 0.0257 | 0.0473 | 0.0287 | 0.0578 | 0.044 | 0.0754 | 0.0476 | 0.0477 | 0.0489 | – | – | – | – |
| K148V | 0.0732 | 0.0649 | 0.0693 | 0.0964 | 0.0652 | 0.0726 | 0.0866 | 0.0842 | 0.073 | – | – | – | – | – | – | 0.0622 | 0.0832 | 0.127 | – |
| L211R | 0.0754 | – | 0.0592 | – | – | – | – | 0.0388 | – | – | 0.0479 | 0.0602 | – | 0.0906 | – | 0.0561 | 0.0567 | 0.0988 | – |
| I167C | 0.0589 | – | 0.0633 | – | 0.0562 | 0.0545 | – | – | 0.0644 | – | 0.0736 | 0.0805 | – | 0.0534 | 0.0624 | 0.0552 | 0.0632 | 0.111 | – |
| L191S | 0.0658 | – | – | – | 0.0203 | – | – | 0.0418 | 0.0616 | 0.0496 | – | 0.031 | – | – | – | – | 0.0916 | – | – |
| L205K | 0.0672 | 0.0982 | 0.0599 | – | – | 0.0741 | 0.0664 | – | – | 0.0639 | 0.0649 | 0.0345 | – | 0.0419 | – | – | 0.0545 | – | – |
| V210R | 0.0645 | – | – | – | 0.0691 | – | 0.08 | 0.0583 | – | – | – | 0.0697 | – | 0.0521 | 0.071 | – | 0.0673 | 0.106 | – |
| V210H | 0.0648 | – | 0.0663 | 0.0771 | 0.058 | – | 0.0891 | 0.065 | – | – | 0.0688 | 0.0768 | – | 0.0605 | 0.0889 | – | 0.0833 | 0.124 | – |
| T174W | 0.0635 | – | 0.062 | 0.142 | – | – | 0.0944 | 0.0451 | – | 0.0548 | 0.0611 | 0.0741 | 0.0849 | – | – | 0.0561 | 0.0647 | 0.107 | – |
| T174Q | 0.0616 | 0.0649 | 0.0612 | 0.0997 | 0.0603 | – | 0.0712 | 0.069 | 0.0643 | 0.0608 | 0.056 | – | – | – | – | 0.0781 | 0.0606 | – | – |
| W212R | 0.0634 | 0.0645 | 0.0592 | – | 0.0648 | 0.0413 | 0.0481 | 0.0533 | 0.061 | 0.0615 | – | – | 0.0543 | – | 0.0482 | – | 0.0652 | 0.0574 | – |
| W212C | 0.0733 | – | 0.0835 | – | 0.0467 | – | 0.0614 | 0.0618 | – | 0.0512 | – | – | – | – | 0.0921 | 0.058 | 0.0775 | – | – |
| V229A | 0.0774 | 0.0553 | 0.0545 | 0.123 | 0.0262 | – | 0.0866 | 0.0636 | 0.073 | 0.0501 | – | 0.0772 | – | 0.072 | 0.0856 | 0.0736 | – | 0.129 | – |
| C152N | 0.0694 | 0.0625 | 0.0705 | – | – | 0.0642 | 0.0582 | 0.062 | 0.0669 | 0.0677 | 0.0675 | 0.0585 | – | 0.0581 | – | – | 0.0679 | – | – |
| F173N | 0.0751 | – | 0.0578 | – | 0.0617 | – | – | – | 0.0483 | 0.062 | – | – | – | 0.0542 | – | 0.0615 | 0.0698 | – | 0.092 |
| G213V | 0.0604 | 0.0496 | – | – | 0.0768 | – | – | 0.0585 | 0.0471 | 0.0452 | 0.0563 | – | – | 0.0027 | – | – | 0.0676 | – | 0.0334 |

| Variant | area with substrate ENLYAQS | area with substrate ENLYDQS | area with substrate ENLYEQS | area with substrate ENLYIQS | area with substrate ENLYKQS | area with substrate ENLYLQS | area with substrate ENLYMQS | area with substrate ENLYNQS | area with substrate ENLYPQS | area with substrate ENLYQQS | area with substrate ENLYRQS | area with substrate ENLYSQS | area with substrate ENLYTQS | area with substrate ENLYWQS | area with substrate ENLYYQS | area with substrate ENLYGQS | area with substrate ENLYHQS | area with substrate ENLYVQS | area with substrate ENLYCQS |
| --- | --- | --- | --- | --- | --- | --- | --- | --- | --- | --- | --- | --- | --- | --- | --- | --- | --- | --- | --- |
| F218W | 0.0991 | 0.0821 | – | 0.0928 | 0.0188 | – | – | 0.065 | 0.0638 | – | – | – | – | 0.0859 | – | 0.0758 | – | 0.0955 | – |
| P225N | 0.0758 | – | 0.0655 | – | 0.0656 | 0.0687 | 0.0875 | 0.0832 | 0.0765 | 0.0619 | – | – | – | 0.0816 | 0.0552 | 0.0611 | 0.0742 | 0.106 | 0.0894 |
| P225H | 0.0697 | – | 0.0598 | – | – | – | 0.0754 | 0.0714 | – | – | 0.0605 | 0.0726 | 0.0734 | 0.0702 | – | 0.0684 | – | 0.102 | – |
| P225E | 0.0717 | 0.055 | 0.0782 | 0.103 | – | – | 0.0861 | – | 0.0687 | – | – | 0.053 | 0.0852 | 0.0921 | 0.0617 | 0.0699 | 0.0656 | – | – |
| E223V | 0.0687 | 0.062 | – | 0.147 | – | 0.0637 | 0.0477 | 0.0857 | – | – | 0.0604 | 0.0737 | – | – | – | 0.0578 | – | – | – |
| E223S | 0.0873 | 0.0747 | 0.0628 | – | 0.0834 | – | 0.0848 | 0.0422 | 0.0707 | – | 0.0613 | – | – | 0.0678 | 0.0682 | 0.0622 | 0.0527 | 0.112 | – |
| A196S | 0.0731 | 0.0795 | 0.061 | – | 0.0534 | 0.0839 | – | 0.0661 | 0.0694 | 0.0578 | 0.0568 | 0.0586 | 0.0656 | 0.0834 | 0.088 | 0.0713 | 0.0617 | 0.122 | – |
| N172I | 0.0457 | 0.0623 | 0.0466 | 0.0437 | 0.0507 | – | 0.0546 | – | 0.0572 | 0.0678 | 0.0392 | 0.0471 | – | 0.0605 | 0.053 | 0.0532 | 0.0709 | 0.0786 | – |
| N172T | 0.0635 | – | 0.0609 | – | – | – | 0.0684 | 0.0676 | – | – | 0.0679 | – | 0.0726 | 0.0588 | – | 0.0612 | 0.0639 | – | – |
| G162K | 0.0699 | – | 0.0732 | – | – | – | 0.0909 | 0.0601 | – | – | – | – | – | – | 0.0574 | – | 0.07 | – | 0.0826 |
| Q197M | 0.0723 | 0.0666 | 0.0494 | 0.135 | – | 0.0744 | – | 0.0683 | 0.0708 | – | – | 0.0728 | – | 0.106 | – | – | 0.114 | 0.134 | – |
| A207Q | 0.057 | 0.0752 | 0.083 | – | 0.0808 | – | 0.101 | 0.0734 | – | 0.0637 | – | – | – | – | 0.0666 | – | 0.0586 | 0.0865 | – |
| Q146F | 0.0701 | 0.0616 | 0.0699 | 0.128 | – | – | – | – | – | 0.0642 | 0.014 | – | – | – | 0.0566 | 0.0678 | 0.0482 | – | – |
| Q146S | 0.0758 | 0.0657 | – | – | 0.0483 | – | – | 0.0694 | – | 0.0434 | – | – | 0.0901 | 0.0938 | – | – | – | – | – |
| K221W | 0.046 | – | – | 0.0722 | – | – | 0.049 | 0.0617 | 0.0725 | 0.0329 | – | 0.0723 | 0.0494 | – | – | 0.0582 | – | – | – |
| K221G | 0.0892 | 0.062 | – | 0.07 | 0.0549 | – | 0.0685 | 0.0663 | – | – | 0.0635 | – | 0.0472 | 0.0703 | 0.0931 | 0.0637 | 0.0527 | – | 0.0827 |
